# Reference: PMC12040169 (PLOS Biology, 2025)
# This is one part of the list.
# System: T1, C. trachomatis L2/434/Bu expressing GFP (CTL2-GFP)
# T1 construct: L2/434/Bu GFP intracellular growth in HeLa cells
# Parameters: species or system HeLa; C. trachomatis total inclusion area by high-content imaging, normalised to DMSO
# Conditions: total inclusion area; 28.5 h, 10 µM; inhibitor
# Method in brief: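 Bulk GFP and resorufin signals were read first. Wells were then fixed, stained with Hoechst and imaged to detect GFP inclusions and host nuclei. MICs followed the previously described calculation.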
row,SMILES,% of control remaining
1,O=C1CN(C(=O)NCc2cccc(C(F)(F)F)c2)CCN1 [CBK155850],99.2591
2,Cc1nc(CN2[C@H]3CCCCC(=O)N[C@@]3(C)C[C@H]2c2cccc(C(F)(F)F)c2)cs1 [CBK285701],123.649
3,COc1ccc(C(=O)NCCCN(C)C)cc1Nc1cncc(-c2ccc(O)cc2)n1 [CBK126938T],83.8223
4,O=C(Nc1ccccc1)N1C[C@@H]2C[C@H](C1)c1c(-c3cccnc3)ccc(=O)n1C2 [CBK289193],92.1519
5,Cc1nn(C)c(N2CCNCC2)c1NC(=O)c1cnccn1 [CBK050308T],94.055
6,CCS(=O)(=O)N1CCN(Cc2ccc3c(c2)OCO3)CC1 [CBK074545],110.766
7,O=C(O)CCC(=O)N(Cc1ccco1)C1CC(=O)N(c2ccc(F)cc2)C1=O (centres unmarked) [CBK287059],83.735
8,CCCCCC(=O)Nc1ccc(C(=O)Cn2nc(C(=O)O)c3ccccc3c2=O)cc1 [CBK295628],96.2801
9,COc1ccccc1NS(=O)(=O)c1ccc(C)c(C(=O)NCC(c2ccco2)N2CCCCC2)c1 (centres unmarked) [CBK296669],86.337
10,Cc1cc(C)c(S(=O)(=O)N2CCC(C(=O)NNC(=S)NC3CCCC3)CC2)c(C)c1 [CBK266844],102.682
11,O=C(NCc1cccnc1)c1ncoc1-c1cccc(Cl)c1 [CBK282403],101.445
12,O=C1CCC[C@]2(CN(Cc3ccccc3)C[C@H]2c2cccnc2)N1 [CBK283349],111.219
13,CCN(CC)CCNc1nc2cc(Cl)ccc2[nH]1 [CBK262453],111.071
14,O=S(=O)(Nc1nnn[nH]1)c1ccc(-c2ccon2)s1 [CBK062391],96.6505
15,CN(CCOc1ccc(Cl)cc1)C(=O)COc1cc2ccccc2cc1C(=O)O [CBK296720],104.792
16,Cc1noc2nc(-c3cccnc3)cc(C(=O)O)c12 [CBK288207],72.6052
17,Cc1ccc(S(=O)(=O)Nc2nc(C)c(C(=O)O)s2)cc1[N+](=O)[O-] [CBK045565],93.2981
18,Nc1nonc1C(=O)NCCNC(=O)c1ccco1 [CBK058480],106.519
19,O=C1Nc2ccc(-c3ccc(Cl)cc3)cc2C(=O)N2CCN(C(=O)CO)C[C@H]12 [CBK289594],89.041
20,O=C(O)COc1ccc(NC(=O)C2CCCO2)cc1 (centres unmarked) [CBK270063],89.6832
21,COCCC(=O)NCc1ccc(OC2CCNCC2)cc1 [CBK024494T],118.761
22,Cn1ccnc1CN1C(=O)CO[C@H]2CN(c3ncccn3)C[C@H]21 [CBK289704],40.3257
23,Cc1nn(C(C)C)c(C)c1CN1CCN(C2CCCCC2)C(=O)C1 [CBK282562],97.8595
24,COc1ccc(C)cc1S(=O)(=O)N(C)CC(=O)Nc1cccc(Cl)c1 [CBK269493],92.0923
25,O=C(c1cccnc1)C1CCN(C(=O)Cc2ccccc2F)CC1 [CBK283814],79.1061
26,COc1cc(CN2CCC(N3CCCCC3)CC2)c([N+](=O)[O-])cc1OC [CBK261858],95.4617
27,Cc1ccccc1CC(=O)NCC(c1ccccc1Cl)N1CCOCC1 (centres unmarked) [CBK304564],48.4187

row,SMILES,% of control remaining
1,CC1CCC2(CC1)NC(=O)N(Cc1csc(-c3ccco3)n1)C2=O (centres unmarked) [CBK304279],37.6543
2,C=C(C)Cn1c(SCC(C)C)nnc1-c1cccs1 [CBK200086],89.0442
3,CCN(CC)C(=O)C1CCCN(C(=O)Nc2cccnc2)C1 (centres unmarked) [CBK156157],89.3142
4,Cn1nc(C2CC2)cc1C(=O)NCCCN1CCCc2ccccc21 [CBK282476],88.4491
5,CN1CCN(C)C(COc2nccc(C(F)(F)F)n2)C1 (centres unmarked) [CBK113298],95.0186
6,COc1ccc([C@@]23CC[C@@H](NC(=O)Nc4ccc(F)c(F)c4)C[C@@H]2N(C(=O)CN)CC3)cc1OC [CBK051679],67.2003
7,CCCC(=O)N1CCC(Cc2ccc(-c3cccc(C)c3)cc2)(C(=O)NC)CC1 [CBK285786],108.517
8,O=C(Cn1nc(C(F)(F)F)c2cccn2c1=O)NC1CCCC1 [CBK282867],73.6402
9,O=C(CCn1c(C(F)F)cc2cccnc21)NC1CCCC1 [CBK285063],95.9108
10,O=C(COc1ccc(Cl)cc1)NNC(=O)Cc1cccc2ccccc12 [CBK261693],104.604
11,O=C(c1cc(S(=O)(=O)N2CCOCC2)ccc1Cl)N1CCCCC1 [CBK304377],35.8624
12,CCOC(=O)C(C)n1ncc2c3sc(C)cc3n(C)c2c1=O (centres unmarked) [CBK284157],82.2179
13,O=C(NC1CCCN(CC(F)(F)F)C1=O)c1cnc(-c2ccncc2)s1 (centres unmarked) [CBK306175],37.5348
14,Cc1nn(-c2ccccn2)c2c1-c1oncc1CC2 [CBK287280],110.35
15,C=CCn1c(Cc2csc(NC(=O)c3ccc(S(C)(=O)=O)cc3)n2)n[nH]c1=S [CBK295340],111.614
16,Cc1ccc(NS(=O)(=O)c2ccc(OC(F)(F)F)cc2)nc1 [CBK043577],91.1276
17,O=c1c(N2CCC(Sc3ccccc3)CC2)nccn1Cc1ccc(OC(F)(F)F)cc1 [CBK155257],85.8415
18,O=C(CSCc1ccc(C(=O)O)cc1)Nc1ccc2ccccc2c1 [CBK299833],59.4712
19,CC1(C)CC(=O)C2=C(C1)OC(=O)CC2c1ccc(Cl)cc1Cl (centres unmarked) [CBK007777],76.0493
20,Cc1ccc(-n2c(C)c([N+](=O)[O-])c3ccc(O)cc32)cc1 [CBK094246],109.489
21,Clc1ccc(Cn2ncc3c(NCc4cccnc4)ncnc32)cc1 [CBK300478],54.642
22,Cc1cccc(C(C)C)c1NC(=O)C1Cc2ccccc2CN1S(=O)(=O)c1ccc(F)cc1 (centres unmarked) [CBK267992],90.098
23,CCN1CCN(S(=O)(=O)c2ccccc2F)CC1 [CBK100558],77.7487
24,COc1ccccc1Cc1cccc(C2CCN(C(=O)Cc3ccccc3)CC2)n1 [CBK286240],76.8699
25,Cc1cccc(CN2CCN(c3ccccc3C(O)c3nccn3C)CC2)c1 (centres unmarked) [CBK286441],90.2832
26,O=c1[nH]c(-c2ccccc2)nc2c1CN(Cc1ccc(F)cc1)CC2 [CBK282329],96.8069
27,Cc1nn(CCC(=O)NCc2ccco2)c(C)c1Cl [CBK269961],88.1741

row,SMILES,% of control remaining
1,Cc1noc(C)c1CNS(=O)(=O)N1CCOC(c2ccccc2)C1 (centres unmarked) [CBK305306],80.5067
2,COC(=O)c1c(NC(=O)C2C3C=CC(C3)C2C(=O)O)sc2c1CCCCC2 (centres unmarked) [CBK262653],104.004
3,CSCc1nc(CS(=O)(=O)Cc2cccc(C(F)(F)F)c2)no1 [CBK023617],115.844
4,O=C(O)c1cccc2c1Sc1ccccc1O2 [CBK017129],28.4208
5,CC(=O)Oc1cc(C)cc(C#N)c1 [CBK038296],82.893
6,Cc1ccc(C(=O)NC(=S)Nc2ccc(-c3ccc(CO)o3)cc2)cc1[N+](=O)[O-] [CBK269127],109.493
7,S=c1nc(-c2ccccc2)n2cc(Br)ccc2n1 [CBK026696],87.7765
8,O=C(O)c1ccc(N2CCCCS2(=O)=O)cc1Cl [CBK287142],93.7274
9,Cc1ccc(-c2nn(CCC#N)cc2C(=O)N2CCCCC2)cc1 [CBK306119],77.6956
10,CCOc1ccsc1C(=O)Nc1cc2ccccc2c(N2CCNCC2)n1 [CBK036341T],96.3839
11,CN1C(=O)c2ccccc2C(=O)[C@@]2(C)CN(C3CCCC3)C[C@@H]12 [CBK283476],74.5826
12,CC(=O)c1cccc(NC(=O)Nc2ccc(S(=O)(=O)Nc3cc(C)on3)cc2)c1 [CBK299794],54.2185
13,Cn1nc(C2CCN(C(=O)CCc3ccccc3)CC2)c2cccnc21 [CBK285050],67.9097
14,O=C(NCCN1CCOCC1)NCC12CC3CC(C1)CC(c1ccccc1)(C3)C2 [CBK268388],94.0879
15,S=C(Nc1ccccc1)N1CCCCC1CN1CCCCC1 (centres unmarked) [CBK006196],73.4114
16,COCc1nc2ccccc2n1CC(=O)N1CCC(c2ccccc2)C1 (centres unmarked) [CBK282211],103.664
17,Cc1cccc(C(=O)Nc2c(C(=O)Nc3ccc(Br)cc3)cnn2-c2ccccc2)c1 [CBK264839],84.38
18,O=C(CSc1nncc(=O)[nH]1)NCc1ccccc1 [CBK270246],108.924
19,Cc1nonc1/N=N/N(CC(=O)N1CCOCC1)c1nonc1C [CBK262399],90.5472
20,CCOC(=O)N(C)c1c(CC)nc2c(OCC(=O)C(C)(C)C)cccn12 [CBK147382],94.5587
21,CCOC(=O)CN1CCN(S(=O)(=O)c2ccc(F)c(Cl)c2)CC1 [CBK043782],88.3368
22,CS(=O)(=O)N(CC(=O)Nc1ccccc1-c1ccccc1)c1ccc(F)c(Cl)c1 [CBK268539],94.5038
23,Cc1cc(NC(=O)CSc2nc(-c3ccc(F)cc3)cc(C(F)(F)F)n2)n(-c2ccccc2)n1 [CBK266248],138.943
24,COc1ccc(C(C)C)cc1-c1cncc(Nc2ccc(Cl)cc2)n1 [CBK065285],97.905
25,O=C(N[C@H]1CO[C@H]2[C@@H]1OC[C@@H]2Nc1nccc(-c2cccc(F)c2)n1)C1CC1 [CBK289535],96.2899
26,CC1CCN(Cc2ccc(-c3nnn(CC(=O)NCc4ccc(S(N)(=O)=O)cc4)n3)cc2)CC1 [CBK144141C],103.097
